Where “and” joins values, the source holds several entries; their conditions need not be identical. Equal entries are not always repeated. The whole screen tested about 94,000 compounds, of which about 6,200 (6.6%) were called active. The shares of active, inactive and inconclusive entries below differ from those in the screen. Calls follow the shape of the dose curve; as a rule, active = well fitted inhibition curve with a large enough effect; inconclusive = small, poorly fitted or top-dose-only effect; inactive = flat fitted curve, though single readings scatter. A potency beside an inconclusive call is a rough fit, not a confirmed value.
Assay: Cytotoxic Profiling in HEK 293 Cell Line of Diverse Libraries Using Quantitative High-Throughput Screening; also: nearly all actives have a fitted effect of over 60% in size
Settings: HEK 293 viability, ATP luminescence (CellTiter-Glo), 48-72 h; activity change, negative = cytotoxicity: at 115 µM (top of the series) unless noted; series mostly up to 115 µM
Outline: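 Cells seeded first (HEK 293, 250 cells/well), then compound added by pintool. Incubation ran 48 or 72 hr at 37 degree Celsius. CellTiter-Glo was added and luminescence imaged after 10 min at room temperature.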
% is scaled to controls: 0 for no effect and ±100 for the full control effect; potency is read from the fitted curve at half-maximal effect; tags tell the direction and shape of the fitted curve.

| Compound | Potency | activity change, negative = cytotoxicity |
| --- | --- | --- |
| CN(C)c1cccc(-c2cc(-c3cn[nH]c3)c3cncn3c2)c1 | inconclusive: 56.2 µM [inhibitor, partial curve, poor fit] | – |
| COCC1CN(Cc2ccc(Br)cc2)CC12CCNCC2 (stereo not drawn) | inconclusive: 50.1 µM [inhibitor, partial curve, poor fit] | – |
| CN1CCCCCCN(C(=O)Nc2ccc3c(c2)OCCO3)CCC1=O | inactive | – |
| O=C(Cc1cccc(Cl)c1)NCCNC(=O)c1cccc(-c2ccsc2)c1 | inconclusive: 50.1 µM [inhibitor, partial curve, poor fit] | – |
| COc1cccc(C(=O)N2CCC3(C2)C(=O)N(CCc2ccccc2)c2ccccc23)c1 (stereo not drawn) | active: 25.1 µM and active: 44.7 µM | – |
| O=C1COCC2(CN(CCCc3ccccc3)C2)CN1Cc1ccccc1 | inconclusive: 89.1 µM [inhibitor, partial curve, poor fit] | – |
| COc1ccc(Cl)cc1C(=O)N1CCC2(CC1)N(c1ccccc1)C(=O)CS2(=O)=O | inactive | – |
| COc1ccc(CC(=O)N2C[C@@H](CO)[C@@H]3Oc4ccccc4[C@@H]32)cc1 | inconclusive: 79.4 µM [inhibitor, single point] | – |
| COc1ccc(NC(=O)O[C@@H]2CO[C@H]3[C@@H]2OC[C@@H]3NC(=O)COc2ccccc2)cc1 | inactive | – |
| O=C(c1n[nH]c2ccccc12)N1CCC2(CC1)CC(N1CCCCC1)CCO2 (stereo not drawn) | inactive | – |
| CCC(=O)Nc1ccc(-c2c(-c3ccc(C)cc3)nn(-c3ccc(F)cc3)c2OC(C)=O)cc1 | active: 44.7 µM | – |
| COc1ccc(CN2C(=O)[C@@H]3C[C@@H](CN3Cc3ccccc3Cl)Oc3ccccc32)cc1 | active: 39.8 µM | – |
| CCOC(=O)C1CCN(C(=O)c2ccc3nnc(-c4cc[nH]c4)n3c2)CC1 | inactive | – |
| Cc1nn(C)c(C)c1CNC(=O)C1CC(=O)N(c2n[nH]c3cccc(F)c23)C1 (stereo not drawn) | inactive | – |
| C=CCCC(CN1CCCC1)Oc1ccc(-c2ccccc2)nn1 (stereo not drawn) | inconclusive: 79.4 µM [inhibitor, single point] | – |
| Cc1cnc(-c2ccccc2)n1CCNS(=O)(=O)c1ccccc1 | inactive | – |
| C=CCCC(=O)N1[C@@H](c2ccco2)[C@@H](C(=O)OCC)C[C@]12CCCCN(CCOC(C)=O)C2=O | inconclusive: 89.1 µM [inhibitor, single point] | – |
| Cc1cnc(CC2CCN(S(=O)(=O)c3ccccc3)C2)n1C(C)C (stereo not drawn) | inconclusive: 89.1 µM [inhibitor, single point] | – |
| CN1Cc2ncnc(NCc3cccs3)c2CN(c2ccccc2)C1=O | inactive | – |
| COc1cccc(CN2CCCOCCNC(=O)[C@@H]3CCCC[C@@H]32)c1OC | inconclusive: 79.4 µM [inhibitor, partial curve, poor fit] | – |
| Cc1ccc(-c2noc([C@@H]3Cc4nc[nH]c4CN3C(=O)Nc3ccccc3)n2)cc1 | inconclusive: 44.7 µM [inhibitor, partial curve, poor fit] | – |

| Compound | Potency | activity change, negative = cytotoxicity |
| --- | --- | --- |
| O=C(NCCn1ccc2ccc(Cl)cc21)C1CC(=O)N(c2n[nH]c3ccccc23)C1 (stereo not drawn) | inconclusive: 89.1 µM [inhibitor, single point] | – |
| O=C(NCC1CCCCCC1)c1nc2cccnc2n(CCc2ccccc2)c1=O | inconclusive: 44.7 µM [inhibitor, partial curve, poor fit] | – |
| COCCN1C(=O)c2ccccc2C(C(=O)Nc2ccc(C)cc2Cl)C12CCCC2 (stereo not drawn) | inconclusive: 44.7 µM [inhibitor, partial curve] | – |
| Cc1ccsc1C(=O)N1CCC(N2C(=O)C(OCC3CC3)C23CCCCC3)CC1 (stereo not drawn) | inconclusive: 50.1 µM [inhibitor, partial curve, poor fit] | – |
| CC(C)c1noc(-c2cn(C3CCN(C(=O)c4cccc(N(C)C)c4)CC3)nn2)n1 | inconclusive: 44.7 µM [inhibitor, partial curve] | – |
| CCOC(=O)c1ccc(NC(=O)N2Cc3[nH]cnc3C[C@H]2c2nc(-c3ccncc3)no2)cc1 | inactive | – |
| CCc1ccc(CNC(=O)CCC2CCN(C(=O)c3ccccc3)CC2)cc1 | inconclusive: 50.1 µM [inhibitor, partial curve, poor fit] | – |
| Fc1ccc(CNC2(Cc3cc(-c4ccc(F)cc4)on3)COC2)cc1 | inconclusive: 100 µM [inhibitor, partial curve] | – |
| COc1ccccc1-c1ccc(CN2CCC(NC(=O)c3ccccn3)C2)cc1 (stereo not drawn) | inconclusive: 56.2 µM [inhibitor, partial curve, poor fit] | – |
| CN1C[C@@H](NS(=O)(=O)Cc2ccccc2)C[C@H]1c1nc(-c2ccc3c(c2)OCO3)no1 | inactive | – |
| O=C(c1nnc(COc2ccc(F)c(F)c2)n1-c1ccccc1)N1CCC[C@@H]1C(c1ccccc1)c1ccccc1 | inconclusive: 20 µM [inhibitor, full curve, poor fit] | – |
| O=C1NCCCCCCN(C(=O)COc2ccccc2)[C@H]2C[C@H](c3nc(-c4cnccn4)no3)C[C@@H]12 | – | inconclusive: -32.4% [inhibitor] |
| COc1ccc(-c2cc(N3CCCC(NC(=O)c4ccc(OC)cc4OC)C3)n[nH]2)cc1 (stereo not drawn) | active: 44.7 µM | – |
| CN(C)c1nccnc1OC1CCN(S(=O)(=O)Cc2ccccc2)C1 (stereo not drawn) | inconclusive: 100 µM [inhibitor, single point] | – |
| CC(C)Cc1cc(CNc2nc(C(C)(C)C)nc3c2cnn3C)no1 | active: 35.5 µM | – |
| O=C1C(N2CCN(S(=O)(=O)Cc3ccccc3F)CC2)CCN1CCc1ccccc1 (stereo not drawn) | inconclusive: 89.1 µM [inhibitor, single point] | – |
| O=C(C1CC=CC1)N1CCC(N2C(=O)C(OCC3CC3)C23CCCCC3)CC1 (stereo not drawn) | inconclusive: 89.1 µM [inhibitor, single point] | – |
| Cc1ccc(C(=O)Nc2cc(C3CCCC3)nn2C)cc1 | inconclusive: 100 µM [inhibitor, partial curve, poor fit] | – |
| O[C@@H]1C[C@@H](c2nc(-c3ccccn3)no2)N(Cc2cccc(OC(F)(F)F)c2)C1 | inconclusive: 56.2 µM [inhibitor, single point] | – |
| COC(=O)N1CCC(C(=O)N2CCCC(c3nc4ccncc4[nH]3)C2)CC1 (stereo not drawn) | inactive | – |
| O=C(NC1CCN(C(=O)c2ccc(-c3cccs3)cc2)CC1)c1ccc(Cl)nc1 | inconclusive: 10 µM [inhibitor, full curve, poor fit] | – |

| Compound | Potency | activity change, negative = cytotoxicity |
| --- | --- | --- |
| COc1ccc(CC(=O)N2CCN(c3ccc4nnc(-c5ccccc5)n4n3)CC2)cc1 | inconclusive: 56.2 µM [inhibitor, partial curve, poor fit] | – |
| COCC1CN(C(C)=O)CC12CCN(Cc1cccc(Br)c1)CC2 (stereo not drawn) | active: 79.4 µM | – |
| CO[C@H]1[C@H](NC(=O)Cc2ccc3c(c2)OCO3)c2ccccc2C12CCNCC2 | inactive | – |
| CCN(C(=O)CCC(=O)N1CCC(C)(c2noc(-c3ccccn3)n2)CC1)c1ccccc1 | inconclusive: 100 µM [inhibitor, single point] | – |
| CCOc1ccccc1NC(=O)N1CCCCCCN(C)C(=O)[C@H]2CCC[C@H]21 | inconclusive: 89.1 µM [inhibitor, partial curve, poor fit] | – |
| CCOC(=O)c1oc2ccc(S(=O)(=O)NCC3Cn4cccc4C(=O)N3C)cc2c1C (stereo not drawn) | active: 39.8 µM | – |
| Cc1noc(-c2ccco2)c1C(=O)NCc1ccc(F)cc1F | inconclusive: 79.4 µM [inhibitor, single point] | – |
| O=C(c1ccc(C(F)(F)F)cc1)N1CCN2C(=O)N(C3CCOCC3)C[C@H]2C1 | inactive | – |
| Cn1cc(-c2ccc3c(n2)CN(Cc2ccc(C(F)(F)F)cc2)C(=O)CO3)cn1 | inconclusive: 56.2 µM [inhibitor, partial curve, poor fit] | – |
| CC(C)CCNC(=O)c1cnc2n1CCN(Cc1cccc(C#N)c1)CC2 | inconclusive: 63.1 µM [inhibitor, partial curve, poor fit] | – |
| Cc1nn2c(c1-c1ccccc1C(C)C)N(Cc1ccc(C(=O)O)cc1)CCC2 | inconclusive: 112 µM [inhibitor, partial curve, poor fit] | – |
| O=C(NCC1CN(C(=O)c2ccoc2)CC12CCOCC2)N1CCCC1 (stereo not drawn) | inactive | – |
| N#Cc1cccc(CN2C[C@@H](CO)[C@H](NC(=O)c3ccccc3)C2)c1 | inconclusive: 8.91 µM [inhibitor, full curve] | – |
| CN(CCCn1ccnc1-c1cnc[nH]1)c1ccccc1 | inconclusive: 89.1 µM [inhibitor, single point] | – |
| Cc1cccc(C(=O)NC2CCN(c3cc(-c4cccs4)[nH]n3)CC2)c1 | inconclusive: 50.1 µM [inhibitor, partial curve, poor fit] | – |
| O=C(N[C@H]1CO[C@H]2[C@@H]1OC[C@@H]2Nc1nccc(-c2cccs2)n1)C1CCCCC1 | inconclusive: 89.1 µM [inhibitor, partial curve] | – |
| COc1ccc(CNC(=O)c2nc3cccnc3n(Cc3ccc(OC)cc3)c2=O)cc1 | active: 79.4 µM and inconclusive: 28.2 µM [inhibitor, full curve] | – |
| O=[S+]([O-])(c1cccc(C(F)(F)F)c1)N1CCCC2(CC(c3ccccc3)=NO2)C1 (stereo not drawn) | inconclusive: 79.4 µM [inhibitor, partial curve] | – |
| COc1ccccc1CN1CC(c2noc(-c3sccc3C)n2)CC1=O (stereo not drawn) | active: 39.8 µM | – |
| Cc1ccccc1C(=O)N1CCC2(CC1)N=C(c1cccc(Br)c1)NO2 | inconclusive: 50.1 µM [inhibitor, partial curve, poor fit] | – |
| O=C(NCC1CC1)C1CCCN1C(=O)c1cccc(-c2cccnc2)c1 (stereo not drawn) | inactive | – |
